Results: PubChem BioAssay AID686979 (National Center for Advancing Translational Sciences (NCATS), 2013)
The whole screen tested about 420,000 compounds, of which about 50,000 (12%) were called active. Inconclusive means that the source gave no clear call. Such entries were picked first, then a sample of the others. Calls come from the whole dose curve; as a rule, active = well fitted inhibition curve with a large enough effect; inconclusive = small, poorly fitted or top-dose-only effect; inactive = flat fitted curve, though single readings scatter. Potencies of inconclusive entries are left out as doubtful fits.

test: qHTS for Inhibitors of human tyrosyl-DNA phosphodiesterase 1 (TDP1): qHTS in cells in presence of CPT; details: chicken DT40 Tdp1-/-;hTDP1 cells + 20 nM CPT, ATP luminescence, 48 h; activity change, negative = growth inhibition: at 46.2 µM (top of the series); note: nearly all actives have a fitted effect of over 55% in size
Summary of the method: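 Cell growth measured by CellTiter-Glo luminescence after a minimum 48 h, 37 C compound exposure with 20 nM CPT in Tdp1-knockout DT40 cells stably expressing hTDP1, seeded 400/well; qHTS titration format.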
% is set by controls: 0 for no effect and ±100 for the full control effect; potency is the fitted concentration of half-maximal effect; tags give direction and shape of the fitted curve.

| SMILES | Potency | activity change, negative = growth inhibition |
| --- | --- | --- |
| CCCN(CC(=O)Nc1ccccc1C)C(=O)c1ccc(-c2ccc([N+](=O)[O-])cc2)o1 | inconclusive [inhibitor, single point] | – |
| Cc1ccc(CN2C(=O)C(C)Nc3ncnc(N4CCN(c5ccccn5)CC4)c32)cc1 (stereo not given) | inconclusive [inhibitor, single point] | – |
| CCC(C)c1ccc(NC(=O)C2=CC=CN3CCS(=O)(=O)N=C23)cc1 (stereo not given) | inconclusive [inhibitor, single point] | – |
| Cc1cc(C(=O)CSc2nnc(-c3ccco3)o2)c(C)n1CC1COc2ccccc2O1 (stereo not given) | active: 16.4 µM | – |
| Cc1ccc(S(=O)(=O)Nc2c(C(=O)O)[nH]c3ccccc23)cc1C | – | inactive: 2.04% |
| O=C(Nc1nc2ccc([N+](=O)[O-])cc2s1)c1ccncc1 | inconclusive [inhibitor, partial curve] | – |
| COc1cc(NC(=S)NC(=O)CC(C)C)ccc1NC(=O)c1cc2ccccc2o1 | inconclusive [inhibitor, partial curve] | – |
| O=C(CN1CCc2ccccc2C1)Nc1cccc(S(=O)(=O)N2CCCC2)c1 | inconclusive [inhibitor, single point] | – |
| COc1ccc(N2CCN(C(=O)CCC(=O)N3CC(C)Oc4ccccc43)CC2)cc1 (stereo not given) | inconclusive [inhibitor, single point] | – |
| COc1cc(C(=O)NC(=S)Nc2cccc3nc(C)ccc23)cc(OC)c1OC | – | inactive: 3.98% |
| O=c1c(-c2cc(F)cc(F)c2)nc2cnc(N3CCNCC3)nc2n1Cc1ccc(F)cc1 | inconclusive [inhibitor, single point] | – |
| CC(=O)Nc1nonc1-c1nnc(SCC(=O)Nc2ccc(C)c(Cl)c2)n1-c1ccccc1 | inconclusive [inhibitor, single point] | – |
| CC(OC(=O)c1ccc2ccccc2c1)C(=O)N(C)Cc1ccccc1 (stereo not given) | inconclusive [inhibitor, single point] | – |
| Cn1cc(C(=O)NCc2ccccc2F)cn1 | – | inactive: -0.179% |
| CCOc1ccccc1NC(=O)c1oc2ccccc2c1NC(=O)C1CCCO1 (stereo not given) | active: 16.4 µM | – |
| C=CCCOc1ccccc1C(N)=O | – | inactive: -21.3% |
| COc1ccc(-n2c(=O)c3ccccc3n(Cc3ccccc3C)c2=O)c(OC)c1 | active: 20.6 µM | – |
| O=C(COC(=O)c1n[nH]c2ccccc12)Nc1ccc(S(=O)(=O)N2CCCC2)cc1 | active: 23.1 µM | – |
| Cc1ccc2nc(NC(=O)C3CCN(c4ncnc5sc(C)c(C)c45)CC3)sc2c1 | active: 13 µM | – |
| CC1CCCCN1CC(=O)Nc1sc2c(c1C#N)CCC2 (stereo not given) | – | inactive: -16.4% |
| CCOc1ccc(S(=O)(=O)NN)cc1 | – | inactive: -12.1% |
| Cc1cccc([N+](=O)[O-])c1NC(=O)CN(Cc1ccccc1)Cc1ccccc1 | active: 25.9 µM | – |
| CCOc1ccc(C(=O)c2cnc3ccc(Cl)cc3c2S(=O)(=O)c2ccc(C)cc2)cc1 | active: 5.8 µM | – |
| O=C1C(=O)N(CCCn2ccnc2)C(c2ccc(Cl)cc2)/C1=C(\O)c1ccc2c(c1)OCCO2 (stereo not given) | – | inactive: 2.33% |
| COc1cccc(C(=O)NCCCn2ccnc2)c1 | – | inactive: -5.19% |

| SMILES | Potency | activity change, negative = growth inhibition |
| --- | --- | --- |
| O=C(CN1CCSCC1)N/N=C/c1cccc(Cl)c1 | – | inactive: -17.7% |
| Fc1ccc(OCc2nn3cnnc3s2)cc1 | inconclusive [inhibitor, single point] | – |
| C/C(=N\Nc1cc(C)nc(NCc2ccccc2)n1)c1ccc([N+](=O)[O-])cc1 | active: 13 µM | – |
| Cc1ccc(S(=O)(=O)N2CC(C(=O)O)=CC[C@H]2c2ccc3c(c2)OCO3)cc1 | – | inactive: -2.84% |
| CC1(C)CC(=O)C2=C(C1)NC(Nc1nc3ccccc3o1)=NC2c1ccccc1Cl (stereo not given) | active: 5.62 µM | – |
| CCOc1cc(C(=O)Nc2ccccc2N2CCOCC2)ccc1OCC(=O)N1CCOCC1 | inconclusive [inhibitor, single point] | – |
| Cc1nn(C)c(C)c1NS(=O)(=O)c1ccc(OC(F)(F)F)cc1 | active: 23.1 µM | – |
| COc1cccc2sc(=NC(=O)CS(=O)(=O)c3ccccc3)n(C)c12 | inconclusive [inhibitor, single point] | – |
| N#Cc1c(-c2ccccc2)cc(-c2ccccc2)nc1Br | inconclusive [inhibitor, partial curve] | – |
| CCOC(=O)C(=CNc1cc(C(F)(F)F)ccc1N1CCOCC1)C(=O)OCC | inconclusive [inhibitor, single point] | – |
| Cc1c(OC(C)C(=O)NCCCN2CCCC2=O)ccc2c3c(c(=O)oc12)CCCC3 (stereo not given) | inconclusive [inhibitor, single point] | – |
| Cc1ccc(-n2nc(CO)c(C(=O)NCCCc3ccccc3)n2)cc1 | inconclusive [inhibitor, single point] | – |
| COc1ccc(CNC(=O)c2ccc3c(c2)NC(=O)C(C)S3)cc1 (stereo not given) | inconclusive [inhibitor, single point] | – |
| CCN1CCCc2cc(CN(CCN3CCOCC3)C(=S)Nc3cccc(Cl)c3)ccc21 | active: 16.4 µM | – |
| CCC(=O)Nc1nonc1-c1nc2ccccc2n1Cc1ccccc1 | inconclusive [inhibitor, single point] | – |
| COP(=O)(OC)C(=NNS(=O)(=O)c1ccc(C)cc1)c1ccccc1 | – | inactive: -8.91% |
| O=C(O)CN1CCN(Cc2ccccc2F)C1=O | – | inactive: -3.64% |
| N#C/C(=C/c1ccco1)C(N)=S | – | inconclusive: -36.4% [inhibitor] |
| Cc1c(C(=O)CN2CCN(c3ccccc3)CC2)c2ccccc2n1C | – | inconclusive: -31.1% [inhibitor] |
| O=C1c2cccc3cccc(c23)N1Cc1ccc(F)cc1 | – | inactive: 22.3% |
| CC1CN(C(=O)Nc2ccc(F)cc2)C2(CCCCCC2)O1 (stereo not given) | – | inactive: -5.36% |
| Cc1nn(-c2ccccc2)c(C)c1C(=O)OCC(=O)NC(=O)NC1CCCC1 | inconclusive [inhibitor, single point] | – |
| Cc1occc1C(=O)N/N=C/C=C\c1ccccc1[N+](=O)[O-] | inconclusive [inhibitor, single point] | – |
| Cc1cc(Br)cn2c(Cc3ccccc3)c(-c3cccc(Cl)c3)nc12 | active: 13 µM | – |
| O=C(c1ccc2c(c1)OCO2)N1CCCC(c2ccccc2)C1 (stereo not given) | inconclusive [inhibitor, single point] | – |

| SMILES | Potency | activity change, negative = growth inhibition |
| --- | --- | --- |
| O=S1(=O)CC/C(=N/Nc2ccccn2)c2cc(F)ccc21 | inconclusive [inhibitor, partial curve] | – |
| c1ccc2c(N3CCOCC3)nc(-c3ccoc3)nc2c1 | inconclusive [inhibitor, single point] | – |
| CC(=O)Oc1c2occc2cc2ccc(=O)oc12 | inconclusive [inhibitor, single point] | – |
| O=C(Nc1cccc(Br)c1)c1ccc(CN2CCc3ccccc3C2)cc1 | inconclusive [inhibitor, single point] | – |
| Cc1ccccc1C(c1ncccc1C)N(C)C(=O)C1CCN(CCOc2ccc(Cl)cc2Cl)CC1 (stereo not given) | inconclusive [inhibitor, single point] | – |
| CCOc1ccc(CNC(=O)C2CCCN(S(=O)(=O)N(C)c3ccc(F)cc3)C2)cc1OC (stereo not given) | active: 14.6 µM | – |
| Cc1ccc(-n2ncc3c(Nc4ccccc4C)ncnc32)cc1 | inconclusive [inhibitor, single point] | – |
| COc1ccc(C(=O)/C=C/Nc2ccc(NC(C)=O)cc2)cc1OC | active: 16.4 µM | – |
| COC(=O)Nc1nnc(-c2ccccc2Cl)s1 | – | inactive: -23.5% |
| CCC(CC)COC(=O)C1=C(C)NC(=O)NC1c1ccc(OC)cc1 (stereo not given) | inconclusive [inhibitor, single point] | – |
| COc1ccc(N2CCC(CNC(=O)Nc3cccc(OC)c3)C2)cc1 (stereo not given) | inconclusive [inhibitor, single point] | – |
| COc1ccc(-c2cn3nc(N4CCCC(C(=O)NCc5ccccc5OC)C4)sc3n2)cc1 (stereo not given) | active: 18.4 µM | – |
| Cc1nn(-c2ccc3nnc(C)n3n2)c(C)c1CCC(=O)Nc1ccc(OC(F)(F)F)cc1 | active: 11.6 µM | – |
| Fc1ccc(Nc2cncc(-c3ccsc3)c2)cc1Cl | active: 16.4 µM | – |
| CCOC(=O)c1cc(CC)sc1NC(=O)C1CC(=O)NN1Cc1ccccc1 (stereo not given) | inconclusive [inhibitor, partial curve] | – |
| Cc1[nH][nH]c(=O)c1N=Nc1ccc(S(N)(=O)=O)cc1 | – | inactive: -17.7% |
| COc1ccc(S(=O)(=O)N2CCOCC2)cc1NC(=O)C1CC(=O)N(c2ccc3c(c2)OCCO3)C1 (stereo not given) | – | inactive: 2.79% |
| CC(=O)c1ccc(NC(=O)c2ccc(-c3nc(COc4ccc(C)cc4)c(C)o3)cc2)cc1 | – | inactive: -4.64% |
| Cc1ccc(CCNC(=O)c2ccc3nc4ccccc4c(=O)n3c2)cc1 | inconclusive [inhibitor, single point] | – |
| CCOc1ccc(S(=O)(=O)N2CCOCC2)cc1NC(=O)CSC(=S)N1CCCC1 | inconclusive [inhibitor, partial curve] | – |
| CS(=O)(=O)c1nc(-c2ccc(Br)cc2)cc(-c2ccccc2)c1C#N | active: 4.11 µM | – |
| O=C(O)/C=C/C(=O)c1ccc2c(c1)CCc1ccccc1-2 | active: 4.11 µM | – |
| COc1ccccc1N(CC(=O)NCCSCc1ccccc1)S(=O)(=O)c1ccccc1 | inconclusive [inhibitor, single point] | – |
| CCOC(=O)c1cc(C(C)(C)C)oc1CNC(=O)c1c(C)oc2c1CCCC2 | inconclusive [inhibitor, single point] | – |
| COCCNC(=S)N1CCC(C(=O)c2ccc(C)cc2)CC1 | inconclusive [inhibitor, single point] | – |
